From the BET-seq Pho4 binding data (Le et al. 2018)
This is one part of the list. These are noisy estimates, calculated here from bound and input reads.

What follows are sequences tested against T1, Pho4 (S. cerevisiae) (UniProt P07270) (assay: relative binding free energy (BET-seq); higher = weaker binding). Settings: reference: library average.
T1 sequence: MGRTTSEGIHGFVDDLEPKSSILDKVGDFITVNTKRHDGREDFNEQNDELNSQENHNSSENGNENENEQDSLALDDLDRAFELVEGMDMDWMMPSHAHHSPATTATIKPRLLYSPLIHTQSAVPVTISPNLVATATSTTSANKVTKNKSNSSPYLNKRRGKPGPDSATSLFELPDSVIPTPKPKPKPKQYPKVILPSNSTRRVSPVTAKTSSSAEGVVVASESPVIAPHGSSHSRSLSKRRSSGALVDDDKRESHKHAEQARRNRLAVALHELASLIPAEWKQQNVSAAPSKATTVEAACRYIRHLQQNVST

Relative binding free energy, -0.07 kcal/mol:
AGCGACACGTGGCGGT
TACATCACGTGGGGTG
CGTGTCACGTGGGGTC
GTCAGCACGTGGGTTT
AGGTCCACGTGGTGGG

Relative binding free energy, -0.12 kcal/mol:
TGCTGCACGTGGGTTA
CGGGGCACGTGTTCAG
GTAGGCACGTGGGTGT
GTTACCACGTGGGTGC

Relative binding free energy, 0.07 kcal/mol:
ATTTACACGTGGCTTT
GAGTGCACGTGATTGG
GGGGGCACGTGATCAA
GGGGTCACGTGGCGTA
AAGGACACGTGATGTG

Relative binding free energy, 0.56 kcal/mol:
TCGATCACGTGAGGTT

Relative binding free energy, -0.19 kcal/mol:
GGAGGCACGTGCAGGA
TTGAGCACGTGGTAAA
GGTGTCACGTGGGCCA
TGGCGCACGTGGCGGC
ATTTGCACGTGGCTTG

Relative binding free energy, -0.13 kcal/mol:
AGTAACACGTGGTAGT
TGCGGCACGTGTATAT
TTGGGCACGTGGTGCG
CTTTGCACGTGGGTGG

Relative binding free energy, -0.23 kcal/mol:
AGAGGCACGTGTATGG

Relative binding free energy, 0.38 kcal/mol:
GATTTCACGTGGTACG
GTTCTCACGTGGACGG

Relative binding free energy, 0.01 kcal/mol:
GGAGGCACGTGTGACT
TTCGTCACGTGGAGAT
GTAAACACGTGGTGGG

Relative binding free energy, 0.19 kcal/mol:
GCTGTCACGTGTGGTT
AGTGTCACGTGAAGTA
TTACTCACGTGTGGGC
AGGCTCACGTGTATGT
TGTATCACGTGTGAGT
AGCTGCACGTGAGAGG
TATATCACGTGTGAGA

Relative binding free energy, -0.1 kcal/mol:
ATTTGCACGTGGTGAG
GTATGCACGTGCGGTA
TTATGCACGTGTGCTA
CGTAACACGTGGTTGG
AGTCACACGTGGAGTG

Relative binding free energy, 0.12 kcal/mol:
AGTTGCACGTGAGCAT
GTGGACACGTGTTAGA
TAAATCACGTGTGGTA
AATGTCACGTGCATTT
GGGCTCACGTGGGTTG

Relative binding free energy, -0.08 kcal/mol:
GTGAGCACGTGGAGTG
TTTAGCACGTGTATTC

Relative binding free energy, 0.15 kcal/mol:
TCATTCACGTGGGGTA
GGTTGCACGTGATTGC
GAGGACACGTGGATAG
TTCATCACGTGATGTA
TGTTTCACGTGTGTCT

Relative binding free energy, 0.05 kcal/mol:
ATAGACACGTGTGTGA
AGAGGCACGTGAGATG
AGTAACACGTGGAGTT
CTTTACACGTGTTTAG
ATGGACACGTGGACGT

Relative binding free energy, -0.04 kcal/mol:
ATTCGCACGTGTGTTT
TTTAGCACGTGATTCA
TGGAGCACGTGGGTGC
TTAACCACGTGTGTTT
GTTCACACGTGGTGCG

Relative binding free energy, -0.17 kcal/mol:
TGCGGCACGTGGTTAG

Relative binding free energy, -0.05 kcal/mol:
ATGTACACGTGGGTTC
AAAAGCACGTGTTATG
TAGAGCACGTGGTTAT

Relative binding free energy, -0.11 kcal/mol:
TTAAGCACGTGTTTTC

Relative binding free energy, 0.09 kcal/mol:
GATGTCACGTGTAAAG
TGTTCCACGTGGATGT

Relative binding free energy, 0.18 kcal/mol:
TTAATCACGTGTCGGA

Relative binding free energy, -0.21 kcal/mol:
GCTGGCACGTGGTTAT
TATAACACGTGCGTGT

Relative binding free energy, 0.16 kcal/mol:
GTTTCCACGTGGTCGG
TCTATCACGTGGGGAT
TATGTCACGTGTGGGA
AGGGTCACGTGTGGCA
TGAATCACGTGATTAG

Relative binding free energy, -0.25 kcal/mol:
AGGGACACGTGGCGTG

Relative binding free energy, 0.29 kcal/mol:
GGAATCACGTGATGTT
TATTTCACGTGTCATA
TGGGTCACGTGAGTAA
CGTTTCACGTGGCGGA
TTGAACACGTGAAGTG

Relative binding free energy, 0.45 kcal/mol:
GTCTTCACGTGATATG
GTATTCACGTGATTTC

Relative binding free energy, -0.3 kcal/mol:
CGAGGCACGTGGGGGG

Relative binding free energy, -0.16 kcal/mol:
AATGGCACGTGTTTGA
GGTGGCACGTGGTAGA
GGAGGCACGTGGAATG
AATGGCACGTGGTCGG
GATGGCACGTGGGAGC
GTGCCCACGTGGTGGG
CCAGTCACGTGGGGGT

Relative binding free energy, -0.15 kcal/mol:
TGTGGCACGTGATCGA
GGGGCCACGTGCGGTT
CTGAGCACGTGGGTAG

Relative binding free energy, 0.26 kcal/mol:
TCGTTCACGTGTTGAG
TATCACACGTGTTGCT
GCGTGCACGTGAGTAT
GAGTGCACGTGATGTG

Relative binding free energy, 0.03 kcal/mol:
CTTAGCACGTGTGAGG
TAGTGCACGTGTTGGT
CGGTGCACGTGCTGGC
CTGGACACGTGTAGGT
CCGTGCACGTGGAGGT

Relative binding free energy, 0.11 kcal/mol:
GTGATCACGTGGTAGA
TTTATCACGTGTGATC
CGTGTCACGTGGAGAG
CTAGTCACGTGTGCGG
ATATGCACGTGTAATG

Relative binding free energy, -0.2 kcal/mol:
TATAACACGTGGGCGT
ATGGACACGTGGGCAG

Relative binding free energy, 0.43 kcal/mol:
GATTTCACGTGTTATG

Relative binding free energy, 0 kcal/mol:
AGGTCCACGTGCGGAG
GTTAACACGTGTGCGG
TTGTACACGTGCGAGG
CGGGTCACGTGCAGGG
TGGGACACGTGGTTCA
TTAATCACGTGGTGCA
TCGGACACGTGGGGCG
ATCGGCACGTGCTTTG

Relative binding free energy, -0.03 kcal/mol:
GTTGGCACGTGTCAGA
CTGCTCACGTGGAGGG
ATGTGCACGTGCAAGT
TCTTGCACGTGTTGCG

Relative binding free energy, -0.09 kcal/mol:
GTGGGCACGTGTGAAC
ATTGGCACGTGCGGTG

Relative binding free energy, -0.34 kcal/mol:
AGGCGCACGTGGGGCT

Relative binding free energy, 0.2 kcal/mol:
GTCGTCACGTGTCGGA
AGGTTCACGTGGGGAA

Relative binding free energy, 0.02 kcal/mol:
CGCTACACGTGGTGGG

Relative binding free energy, 0.22 kcal/mol:
TTACTCACGTGTATGG
TTTATCACGTGATAAT

Relative binding free energy, 0.06 kcal/mol:
GCGGTCACGTGTGTAA
GGCGTCACGTGGTGCT
CTGTACACGTGGGAAG
GTGGTCACGTGCATAT
TGTTGCACGTGTATTG

Relative binding free energy, -0.31 kcal/mol:
CGGGGCACGTGCGGCT

Relative binding free energy, -0.26 kcal/mol:
TTCAGCACGTGGGTGT

Relative binding free energy, -0.01 kcal/mol:
GTTGGCACGTGTCCGG
TATTCCACGTGGGGAA
ACTTGCACGTGGCGGT
ATCTGCACGTGGGTTT

Relative binding free energy, 0.25 kcal/mol:
GTCGTCACGTGTAAGG
TGCTACACGTGATATG
ATCTTCACGTGTGTTT
AGGTTCACGTGTGAAT
TTAGTCACGTGAGCTA
TAGATCACGTGACGTG
TAGGACACGTGAGTGT

Relative binding free energy, 0.24 kcal/mol:
GAGCTCACGTGGTGTT
ATGGTCACGTGAGGTA

Relative binding free energy, 0.33 kcal/mol:
GTATTCACGTGGAGTT
TATTACACGTGAGGTA
TGAGTCACGTGAAGTC
TTGCACACGTGAAGTT
TGGATCACGTGTTAGC
GGGTTCACGTGAAGGC

Relative binding free energy, 0.23 kcal/mol:
AGGATCACGTGGTGAC
TCTGCCACGTGAAGGT
GGTTACACGTGTGAGG

Relative binding free energy, 0.51 kcal/mol:
AAGTTCACGTGTGTAC

Relative binding free energy, 0.04 kcal/mol:
TTGGTCACGTGGCGCA
AGGGTCACGTGCATTG
TTGTGCACGTGGTAAT
TCTGTCACGTGGTATT
TTAAGCACGTGATGTC
AGTCACACGTGTTTGT

Relative binding free energy, 0.3 kcal/mol:
TCTTTCACGTGTAATG
GGTTTCACGTGTCGGA

Relative binding free energy, -0.18 kcal/mol:
CGATGCACGTGGGGTT

Relative binding free energy, 0.27 kcal/mol:
TGTTTCACGTGGAATA
TATTTCACGTGCTGCT
AAGTTCACGTGGTCGA
TGTTCCACGTGAAGTT

Relative binding free energy, 0.08 kcal/mol:
GGGGTCACGTGCGGAT
CGTGGCACGTGAGTTG
TTTGACACGTGTTGGC
GGTTCCACGTGGGTGC

Relative binding free energy, 0.14 kcal/mol:
GGTAACACGTGGAGCT
GTAATCACGTGGGAAG
TTCAGCACGTGAAGGG
GGTTACACGTGCTTAG
GTAGTCACGTGTTTAG
TGAAACACGTGATAGT
GTCTTCACGTGGCGTG
AGACTCACGTGGGTTA
TACATCACGTGTGGAG

Relative binding free energy, 0.34 kcal/mol:
GGGTTCACGTGGATGT
GTTCACACGTGATAGG
TGTTTCACGTGGAGTG

Relative binding free energy, 0.17 kcal/mol:
TGGTTCACGTGCTAAT
TGTCTCACGTGTATTA
GCGTTCACGTGGAGGT

Relative binding free energy, -0.14 kcal/mol:
AGATGCACGTGGTGCA
GTTGCCACGTGCGGGG
AGTAGCACGTGTTGCT
ACTGGCACGTGGGGCA

Relative binding free energy, 0.1 kcal/mol:
AAGATCACGTGTTGTA
TTGATCACGTGTTTGT
GGGAACACGTGGACGT
ATCAGCACGTGAGGGG
CGGCGCACGTGGTAAG
AATGGCACGTGAGATT

Relative binding free energy, 0.13 kcal/mol:
CGGCTCACGTGGGATT
TATGACACGTGTGGTC
CGGAGCACGTGACGTG
TGGGTCACGTGATGTT
GTTGACACGTGAGTAT

Relative binding free energy, 0.31 kcal/mol:
TTTTTCACGTGGCGGT
GATGTCACGTGAAAGG

Relative binding free energy, 0.32 kcal/mol:
TGATACACGTGAATAT
CTTTTCACGTGAGTTT
TAGGTCACGTGAGTAA

Relative binding free energy, -0.02 kcal/mol:
TTGCGCACGTGATGGA
TGCAACACGTGGGTCG
CTGTGCACGTGCGGGT
TAGGACACGTGTATGA
TATGGCACGTGTACGA
CGGTACACGTGGTGTT
TCGAGCACGTGTTTAG
GTATCCACGTGTTGGG
GATTGCACGTGTATGT

Relative binding free energy, 0.36 kcal/mol:
ATTTTCACGTGACGAT

Relative binding free energy, -0.22 kcal/mol:
TGGGGCACGTGGTCGA

Relative binding free energy, -0.06 kcal/mol:
GAGAGCACGTGTTAAG
GGAGGCACGTGTAGCT
